These results are taken from patent US20140308201A1 (Novartis, published 2014).

Assay [1] concerns the target T1, Cynomolgus monkey FGFR2 IIIb D1-3 (cynomolgus monkey).
T1 construct: also called Cyno FGFR2 IIIb
T1 chain: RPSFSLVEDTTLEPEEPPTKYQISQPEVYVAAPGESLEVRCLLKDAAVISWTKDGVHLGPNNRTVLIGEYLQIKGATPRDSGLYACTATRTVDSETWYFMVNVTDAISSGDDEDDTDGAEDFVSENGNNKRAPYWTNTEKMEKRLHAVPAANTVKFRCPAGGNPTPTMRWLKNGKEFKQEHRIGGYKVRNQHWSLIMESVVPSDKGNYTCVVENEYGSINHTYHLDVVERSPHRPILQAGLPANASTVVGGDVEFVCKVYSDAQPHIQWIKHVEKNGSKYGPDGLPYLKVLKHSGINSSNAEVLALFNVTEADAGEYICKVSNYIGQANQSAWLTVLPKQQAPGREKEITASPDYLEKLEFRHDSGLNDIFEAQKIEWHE
Briefly: SPR Biacore, method as Example 2. (In general: Surface plasmon resonance follows binding to a sensor surface in real time, without labels.)

The target of assay [2] is T2, Human FGFR4 ECD (human, UniProt P22455 22-369).
T2 construct: Extracellular domain with C-terminal tag
Put plainly: screening of panning outputs for specificity and cross-reactivity (assays of Example 1).

Assay [3] has as its target T3, Mouse FGFR2 IIIb D1-3 (mouse).
T3 construct: Extracellular domains with C-terminal tag
Briefly: SPR Biacore, method as Example 2.

The target in assay [4] is T4, Human FGFR2 IIIb D1-3 (human).
T4 construct: Extracellular domains D1-3 with C-terminal tag, made in HEK293T; also called recombinant human FGFR2 IIIb; hFGFR2
T4 chain: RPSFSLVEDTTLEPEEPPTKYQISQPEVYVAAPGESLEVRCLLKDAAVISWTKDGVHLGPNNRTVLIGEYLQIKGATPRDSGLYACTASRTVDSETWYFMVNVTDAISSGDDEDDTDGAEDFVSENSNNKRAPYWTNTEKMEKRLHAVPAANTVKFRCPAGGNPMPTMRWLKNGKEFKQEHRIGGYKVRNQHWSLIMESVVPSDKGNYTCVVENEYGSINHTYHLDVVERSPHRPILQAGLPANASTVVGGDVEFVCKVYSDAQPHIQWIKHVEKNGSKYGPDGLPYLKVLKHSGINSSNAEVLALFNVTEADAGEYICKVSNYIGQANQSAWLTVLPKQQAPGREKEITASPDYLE
Put plainly: SPR Biacore, method as Example 2.

Assay [5] addresses T4, Human FGFR2 IIIb D1-3. Briefly: SPR Biacore, method as Example 2.
Assay [6] deals with T3, Mouse FGFR2 IIIb D1-3. Briefly: SPR Biacore, IgG captured via anti-human Fc, soluble FGFR as analyte.
The target in assay [7] is T4, Human FGFR2 IIIb D1-3. Described as above.
In assay [8] the target is T1, Cynomolgus monkey FGFR2 IIIb D1-3. The description is as above.

B1: 12433-MCC-DM1 (other)
heavy: QVQLVQSGAEVKKPGESLKISCKGSGYSFTNYYIHWVRQMPGKGLEWMGAIYPDNSDTTYSPSFQGQVTISADKSISTAYLQWSSLKASDTAMYYCARGADIWGQGTLVTVSSASTKGPSVFPLAPSSKSTSGGTAALGCLVKDYFPEPVTVSWNSGALTSGVHTFPAVLQSSGLYSLSSVVTVPSSSLGTQTYICNVNHKPSNTKVDKRV[human IgG1 Fc cut from this listing]
light: DIQMTQSPSSLSASVGDRVTITCRASQDIDPYLSNWYQQKPGKAPKLLIYDASNLQSGVPSRFSGSGSGTDFTLTISSLQPEDFATYYCQQTTSHPYTFGQGTKVEIKRTVAAPSVFIFPPSDEQLKSGTASVVCLLNNFYPREAKVQWKVDNALQSGNSQESVTEQDSKDSTYSLSSTLTLSKADYEKHKVYACEVTHQGLSSPVTKSFNRGEC
modifications: DM1 linked through MCC (SMCC) linker to lysine residues, sites not given; DM1 linked through MCC (SMCC) linker to lysine residues, sites not given, MAR 3.4
Regarding B1, in assay [1], the dissociation constant Kd (usually the equilibrium constant for the complex coming apart) was 1.5 nM.

B2: mAb12425 (antibody, human IgG1, kappa)
heavy: QVQLLESGGGLVQPGGSLRLSCAASGFTFSDYAMSWVRQAPGKGLEWVSVIEGDGSYTHYADSVKGRFTISRDNSKNTLYLQMNSLRAEDTAVYYCAREKTYSSAFDYWGQGTLVTVSSASTKGPSVFPLAPSSKSTSGGTAALGCLVKDYFPEPVTVSWNSGALTSGVHTFPAVLQSSGLYSLSSVVTVPSSSLGTQTYICNVNHKPSNTKVDKRV[human IgG1 Fc cut from this listing]
light: DIQMTQSPSSLSASVGDRVTITCRASQDISSDLNWYQQKPGKAPKLLIYDASNLQSGVPSRFSGSGSGTDFTLTISSLQPEDFAVYYCQQHYSPSHTFGQGTKVEIKRTVAAPSVFIFPPSDEQLKSGTASVVCLLNNFYPREAKVQWKVDNALQSGNSQESVTEQDSKDSTYSLSSTLTLSKADYEKHKVYACEVTHQGLSSPVTKSFNRGEC
notes: HuCAL human IgG1
As to B2, the binding result in assay [2] is recorded as “binds”. The Kd in assay [3] was determined as 3.2 nM; in assay [4], 2.1 nM; in assay [1], 1.6 nM; in assay [5] it was 2.1 nM; in assay [6] it was 16 nM; in assay [7], 14 nM. In assay [8], this molecule yielded a dissociation constant (Kd) of 12 nM.

B3: 12425-MCC-DM1 (other)
heavy: B2 heavy
light: B2 light
modifications: DM1 linked through MCC (SMCC) linker to lysine residues, sites not given; DM1 linked through MCC (SMCC) linker to lysine residues, sites not given, MAR 3.5-3.6
With B3, the values for the dissociation constant Kd in assay [4], in assay [1] and in assay [5] were 2.3 nM, 1.9 nM and 2.3 nM, respectively.
